Measurements: paper PMC4336329 (PLoS ONE, 2015)
About 2,200 (0.71%) of roughly 310,000 compounds showed an effect of 50% or more. Effects have a minus sign here. The list shows a part of the results.

Target: human ether-à-go-go-related gene (hERG) potassium channel (human, UniProt Q12809)
Test: primary screen, population patch clamp on CHO cells stably expressing hERG

Sequence of human ether-à-go-go-related gene (hERG) potassium channel (Q12809 whole entry, looked up): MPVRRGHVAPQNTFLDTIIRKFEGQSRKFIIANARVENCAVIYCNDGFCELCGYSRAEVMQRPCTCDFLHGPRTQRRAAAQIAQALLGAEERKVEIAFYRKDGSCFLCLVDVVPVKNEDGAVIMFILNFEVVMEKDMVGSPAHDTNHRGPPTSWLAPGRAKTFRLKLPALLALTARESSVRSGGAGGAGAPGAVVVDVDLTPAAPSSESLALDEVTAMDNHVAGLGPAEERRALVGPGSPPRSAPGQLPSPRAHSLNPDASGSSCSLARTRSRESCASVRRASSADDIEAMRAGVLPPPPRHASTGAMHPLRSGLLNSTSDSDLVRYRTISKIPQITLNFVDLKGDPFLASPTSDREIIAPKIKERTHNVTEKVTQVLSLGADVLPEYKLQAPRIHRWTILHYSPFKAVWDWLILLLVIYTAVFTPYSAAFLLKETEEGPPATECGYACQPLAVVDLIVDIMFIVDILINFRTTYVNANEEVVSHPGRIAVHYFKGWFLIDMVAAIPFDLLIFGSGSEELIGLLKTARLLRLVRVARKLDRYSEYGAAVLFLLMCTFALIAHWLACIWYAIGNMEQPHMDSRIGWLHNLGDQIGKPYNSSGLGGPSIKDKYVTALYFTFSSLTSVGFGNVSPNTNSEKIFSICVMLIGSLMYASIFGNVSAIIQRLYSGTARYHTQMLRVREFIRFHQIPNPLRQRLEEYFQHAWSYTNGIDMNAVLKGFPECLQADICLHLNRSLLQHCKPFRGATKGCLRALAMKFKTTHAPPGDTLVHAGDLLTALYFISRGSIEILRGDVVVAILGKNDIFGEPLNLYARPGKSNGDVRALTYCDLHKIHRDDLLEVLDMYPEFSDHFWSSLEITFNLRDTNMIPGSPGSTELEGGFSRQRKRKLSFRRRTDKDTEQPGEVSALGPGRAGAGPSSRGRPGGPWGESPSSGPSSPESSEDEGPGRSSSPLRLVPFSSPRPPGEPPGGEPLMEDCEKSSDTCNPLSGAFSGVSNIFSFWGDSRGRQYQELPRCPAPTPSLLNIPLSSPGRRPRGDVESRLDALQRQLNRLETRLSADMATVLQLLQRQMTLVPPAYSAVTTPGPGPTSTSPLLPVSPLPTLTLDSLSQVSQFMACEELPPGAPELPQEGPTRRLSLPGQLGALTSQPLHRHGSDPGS

| SMILES | hERG current change (%, negative = inhibition) at 1uM |
| --- | --- |
| COCCn1c(=NC(=O)c2ccco2)sc2cc(C(=O)OC)ccc21 | 5.99% |
| COCCNC(=S)N1CCC(Cc2ccccc2)CC1 | 4.89% |
| Cc1c(Nc2nc(-c3ccc(Cl)cc3)cs2)c(=O)n(-c2ccccc2)n1C | 3.28% |
| COc1ccc(C/C(N)=N/OC(=O)Cc2ccccc2)cc1OC | 6.37% |
| S=c1[nH]nc(-c2cc(-c3ccccc3)n[nH]2)n1/N=C/C(Br)=C/c1ccccc1 | 11.1% |
| Cc1cc(=O)oc2c(N)c(O)ccc12 | 8.02% |
| CCOC(=O)c1cc(NC(=O)C2CCCO2)cc(C(=O)OCC)c1 (stereo not drawn) | -1.88% |
| Cc1c(Nc2nc3ccccc3nc2NS(=O)(=O)c2cccs2)c(=O)n(-c2ccccc2)n1C | 0.391% |
| Cc1ccc(S(=O)(=O)NCCCCCC(=O)Nc2ccccc2)cc1 | 4.13% |
| CC1(C)CC(=O)c2cc3c(nc2C1)CC(C)(C)CC3=O | 6.3% |
| CCOC(=O)CCCNC(=O)CCNC(=O)c1ccc(OCC(C)C)cc1 | 8.96% |
| COC(=O)C1=C(SC)N(c2ccc(OC)cc2)C(c2ccccc2)CC1=O (stereo not drawn) | -3.13% |
| N=C1C=CC=C2C1=NC1(CCCCC1)N2O | 12.5% |
| O=C(Nc1nccs1)c1cc(-c2ccccn2)nc2c(Cl)cccc12 | 7.21% |
| Cc1ccc2nsnc2c1-n1c(C)nc2ccccc2c1=O | 13% |
| C=CCn1c(O)c(C=NCCN2CCNCC2)c(=O)[nH]c1=O | 10.3% |
| COc1ccc(N(CC(O)CN2CCOCC2)S(=O)(=O)c2ccccc2)cc1 (stereo not drawn) | 12.1% |
| COc1ccc(NS(=O)(=O)c2cc(NC(=O)C3CC3)ccc2N2CCCCC2)cc1 | 10.2% |
| Cc1cccc(OCC(=O)Nc2ccccc2N2CCN(C(=O)C(C)C)CC2)c1C | 4.26% |

| SMILES | hERG current change (%, negative = inhibition) at 1uM |
| --- | --- |
| COC(=O)c1cccc(NC(=O)c2cc3ccccc3o2)c1 | 5.16% |
| Clc1ccc(OCCSCc2nc3ccccc3[nH]2)cc1 | -0.246% |
| COc1cccc(N2C(=O)C3CCCN3C2c2ccc(N(C)C)cc2)c1 (stereo not drawn) | 6.82% |
| O=C(CNC(=O)C(c1ccccc1)c1ccccc1)N/N=C/c1ccc(O)cc1O | -4.92% |
| OCC[C@@H]1C[C@@H](O)[C@H](O)[C@@]2(CCCO2)O1 | 5.71% |
| COc1ccc(/C(O)=C2/C(=O)C(=O)N(CCCN3CCOCC3)C2c2ccc(C)cc2)cc1 (stereo not drawn) | 20% |
| CC1=C(C(=O)Nc2ccccn2)C(c2ccc(F)cc2)n2ncnc2N1 (stereo not drawn) | 7.26% |
| Cc1cccc(N2CC(C(=O)NCC3COc4ccccc4O3)CC2=O)c1C (stereo not drawn) | 1.12% |
| COc1ccc(C(=O)CSc2ccc3nnc(-c4cccnc4)n3n2)cc1 | -5.91% |
| CC(=O)/C(C(=N)N1CCN(C(c2ccccc2)c2ccccc2)CC1)=C(\C)O | 4.08% |
| C=CCc1cc(Cl)ccc1OCCn1ccnc1.O=C(O)C(=O)O | 4.9% |
| COc1ccc(-c2nn[nH]n2)cc1OC | 12.2% |
| N#CCCN(CCC#N)S(=O)(=O)c1ccc(C(=O)Nc2nnc(C3=COCCO3)o2)cc1 | 14.9% |
| Cc1cc(-c2ccc(C)c(S(=O)(=O)N3CCN(C(=O)c4ccco4)CC3)c2)on1 | -4.76% |
| COc1ccc(C(C)=O)cc1CN1C(=O)NC2(CCCCC2)C1=O | 10.3% |
| CN(C)C(CNC(=S)Nc1cccc(Cl)c1)c1ccccc1 (stereo not drawn) | 4.46% |
| COC(=O)/C(=C\C(=O)c1ccc([N+](=O)[O-])cc1)Nc1ccc(OC)cc1 | 14.4% |
| O=C1C2C3C=CC(CC3)C2C(=O)N1c1ccc2c(c1)OCO2 (stereo not drawn) | 12.6% |
| CCN1CCN(c2nc3ccccn3c(=O)c2C=O)CC1 | 2.22% |

| SMILES | hERG current change (%, negative = inhibition) at 1uM |
| --- | --- |
| COc1cc(NC(=O)C2C3C=CC(C3)C2C(=O)O)ccc1NC(=O)c1ccccc1 (stereo not drawn) | 15.2% |
| CCCCCOc1ccc(Br)cc1/C(C)=N/NC1=NCCN1 | -3.01% |
| Cc1nn(-c2ccccc2)c(Cl)c1/C=N/NC(=O)c1cccc(S(=O)(=O)N2CCCC2)c1 | 25.5% |
| O=C(c1ccccc1)N1CCN(c2ccc([N+](=O)[O-])c(NCc3ccco3)c2)CC1 | 3.03% |
| Br.COc1ccc(C(=O)Cn2c(NCCO)nc3ccccc32)cc1 | 4.51% |
| N#CCCCCn1ccc(NC(=O)c2ccc(Cl)cc2O)n1 | 13.7% |
| CN1CCC2(CC1)C1CN(C)CC=C1C(C#N)=C(N)C2(C#N)C#N.O.[OH-] (stereo not drawn) | 13.2% |
| O=C(Nc1cccc2ccccc12)N1CCN(Cc2ccccc2)CC1 | 5.63% |
| COC(=O)/C=C1/S/C(=N/N=C/c2ccco2)NC1=O | 17.1% |
| Cc1ccc(Cl)cc1NC(=O)C1CC(=O)N(C(C)C)C1 (stereo not drawn) | 11.5% |
| Cc1c(OCc2ccccc2)cccc1OCc1ccccc1 | 16.6% |
| Cc1cc(C)nc(SCCCNCc2ccc(Br)cc2)n1.Cl | 0.685% |
| Cc1ccc(S(=O)(=O)NCC2CCC(C(=O)NCc3cccs3)CC2)cc1 (stereo not drawn) | 16.3% |
| Cc1ccc(N(C)S(=O)(=O)c2cccc(C(=O)NCCCN3CCCC3=O)c2)cc1 | 6.58% |
| Cc1ccc(CNC(=O)c2ccccc2-n2cnnn2)cc1 | 12.3% |
| O=C1CCC(C(=O)N2CCC(CO)(Cc3ccc(Cl)cc3)CC2)=NN1 | 2.9% |
| CCCCOC(=O)Nc1nnc(/C=C/c2ccc(OC)cc2)s1 | 8.95% |
| COC(=O)C1(CO)NC(c2ccc(C)cc2)C2C(=O)N(c3ccccc3)C(=O)C21 (stereo not drawn) | 8.82% |
| COc1ccc(CC(=O)OCC(=O)N2N=C(c3ccccc3)CC2c2ccc(OC)cc2)cc1 (stereo not drawn) | 8.65% |
